Assay results: PubChem BioAssay AID1468 (National Center for Advancing Translational Sciences (NCATS), 2008)
In all, about 280,000 compounds went through this assay and about 1,100 (0.39%) were called active. The shares of active, inactive and inconclusive entries below differ from those in the screen. The call rests on the fitted dose curve; in most records, active means well fitted inhibition curve with a large enough effect; inconclusive means small, poorly fitted or top-dose-only effect, or effect the other way; inactive means flat fitted curve, though single readings scatter. No potency is given beside an inconclusive call; the fits are too rough.

Each compound was assayed against Microtubule-associated protein tau (Homo sapiens) (UniProt P10636) (assay: qHTS for Inhibitors of Tau Fibril Formation, Fluorescence Polarization). Details: K18 P301L tau heparin fibrillization, Alexa594 FP, 6 h; series mostly up to 57.7 µM; activity, negative = inhibition: at the top concentration.
Sequence of UniProt P10636 (P10636 whole entry, looked up): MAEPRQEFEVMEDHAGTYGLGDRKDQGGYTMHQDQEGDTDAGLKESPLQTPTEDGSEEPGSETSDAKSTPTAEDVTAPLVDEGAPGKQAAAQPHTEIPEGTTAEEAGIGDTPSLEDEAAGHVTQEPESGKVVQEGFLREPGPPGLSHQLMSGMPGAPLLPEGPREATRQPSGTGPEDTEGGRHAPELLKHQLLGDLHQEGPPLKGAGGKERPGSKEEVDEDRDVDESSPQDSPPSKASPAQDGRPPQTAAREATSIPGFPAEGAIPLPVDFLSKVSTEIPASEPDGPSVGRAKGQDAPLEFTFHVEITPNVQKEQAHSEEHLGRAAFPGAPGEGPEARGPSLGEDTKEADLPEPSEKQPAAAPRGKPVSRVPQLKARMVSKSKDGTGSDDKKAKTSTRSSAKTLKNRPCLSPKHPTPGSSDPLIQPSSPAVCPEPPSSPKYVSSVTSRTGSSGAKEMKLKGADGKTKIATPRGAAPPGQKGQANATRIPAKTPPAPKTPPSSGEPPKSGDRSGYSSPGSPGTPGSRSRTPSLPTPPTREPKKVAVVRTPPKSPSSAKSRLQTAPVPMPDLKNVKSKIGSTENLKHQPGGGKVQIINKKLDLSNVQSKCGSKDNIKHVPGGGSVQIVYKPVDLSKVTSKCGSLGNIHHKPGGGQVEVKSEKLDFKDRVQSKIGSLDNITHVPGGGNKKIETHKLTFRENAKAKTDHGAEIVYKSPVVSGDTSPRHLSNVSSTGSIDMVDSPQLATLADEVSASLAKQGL
Outline: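 FP of Alexa 594-tau after heparin (20 uM) induction. Substrate: human K18 P301L, 15 uM unlabeled, 0.24 uM labeled. Buffer 100 mM sodium acetate pH 7. 6 hr, 37 C.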
Further: nearly all actives have a fitted effect of over 55% in size.
On the % scale 0 is the no-effect control and ±100 the full control effect; potency means the concentration at half of the fitted maximal effect; tags describe the fitted curve by direction and shape.

Row | SMILES | Potency | activity, negative = inhibition
1 | O=c1[nH]nc(CNc2ccc(O)cc2)c2ccccc12 | inconclusive [inhibitor, single point] | –
2 | Cc1ccc(C(=O)C(C)CN2CCCCC2)cc1 (stereo not drawn) | – | inactive: -12.7%
3 | Cc1cccc(C2=NN(c3ccccc3)[C@H](CO)[C@H]2c2ccccc2)c1 | inconclusive [activator, partial curve, poor fit] | –
4 | O=C(CSc1nc2ccccc2c2nc3ccccc3n12)NCc1ccco1 | – | inactive: -11.4%
5 | NS(=O)(=O)c1ccc2nc(NC(=O)COc3ccc(Cl)cc3Cl)sc2c1 | inconclusive [inhibitor, partial curve, poor fit] | –
6 | CCOC(=O)CCN1C(=O)[C@H]2[C@H]3[C@H](O)[C@H](O)C/C(=N/OC/C=C(\C)CCC=C(C)C)[C@@H]3CC[C@@H]2C1=O | – | inactive: -3.26% [at 11.6 µM]
7 | COCCCNC(=O)C1CCN(c2cc(C)nc3c(-c4ccc(Cl)cc4)c(C)nn23)CC1 | – | inactive: 1.64%
8 | CCCc1ccc(Oc2cn[nH]c2-c2ccc(O)cc2O)cc1 | inconclusive [inhibitor, single point] | –
9 | COc1ccc(O)c(-c2cc(-c3ccccc3[N+](=O)[O-])[nH]n2)c1 | – | inactive: 5.28%
10 | CCCNC(=O)CSc1nc(-c2ccc(OC)cc2)cc(C(F)(F)F)n1 | inconclusive [inhibitor, single point] | –
11 | O=C(Oc1ccccc1C(=O)Nc1ccccc1)c1ccc(Br)c([N+](=O)[O-])c1 | inconclusive [inhibitor, partial curve] | –
12 | CCn1cc(S(=O)(=O)CC(=O)Nc2cc(C)on2)c2ccccc21 | inconclusive [inhibitor, full curve, poor fit] | –
13 | Cc1ccc(CNC(=O)CS(=O)Cc2nc(-c3ccccc3C)oc2C)cc1 (stereo not drawn) | inconclusive [activator, single point] | –
14 | COc1cccc(CNC(=O)CCN2C(=S)NC(C)(C)CC2C)c1 (stereo not drawn) | inconclusive [inhibitor, single point] | –
15 | Nc1nc(-c2cc3ccccc3o2)cs1 | inconclusive [activator, full curve, poor fit] | –
16 | Cn1c(Oc2ccc(Cl)cc2)nc2c1c(=O)n(Cc1ccc(F)cc1)c(=O)n2C | – | inactive: -5.35%
17 | CC1(OC(=O)c2ccc(Cl)nc2)C(=O)C=C2C=C(c3ccc(C#N)cc3)OC=C2C1=O (stereo not drawn) | inconclusive [inhibitor, partial curve] | –
18 | O=C(NCCc1ccccc1)c1ccc2c(c1)N(Cc1ccc(F)cc1)C(=O)c1ccccc1S2 | inconclusive [inhibitor, single point] | –
19 | COc1ccc(CCNC(=O)Cc2c(C)c3cc4c(C)coc4c(C)c3oc2=O)cc1 | inconclusive [inhibitor, single point] | –
20 | Cc1ccccc1NC(=O)CSc1nc2cc3c(cc2cc1C)CCC3 | inconclusive [inhibitor, single point] | –
21 | COc1ccc(Nc2ncnc3c2cnn3-c2ccccc2)cc1OC | inconclusive [activator, partial curve] | –

Row | SMILES | Potency | activity, negative = inhibition
22 | COc1ccc(OC)c(S(=O)(=O)Nc2ccccc2F)c1 | inconclusive [inhibitor, single point] | –
23 | O=C(C1CCC(CNc2nc(=S)[nH]c3ccccc23)CC1)N1CCN(c2ccccn2)CC1 (stereo not drawn) | inconclusive [inhibitor, single point] | –
24 | CCOc1ccc(NC(=O)c2ccc(F)c(S(=O)(=O)N3CCN(c4ccccn4)CC3)c2)cc1 | inconclusive [inhibitor, single point] | –
25 | Cc1[nH]c2ccccc2c1/C=N/NC(=O)c1cccc(F)c1 | inconclusive [activator, partial curve, poor fit] | –
26 | CSCCC(NC(=O)C1CCC(C)CC1)C(=O)NCCN1CCOCC1 (stereo not drawn) | – | inactive: 0.778%
27 | Cc1cc(-c2ccc(S(=O)(=O)Nc3ccc(Cl)cc3C)cc2)on1 | inconclusive [inhibitor, partial curve, poor fit] | –
28 | COc1cccc(N2CC(NC(=O)/C=C\c3ccc(OC)c(OC)c3)CC2=O)c1 (stereo not drawn) | inconclusive [inhibitor, full curve, poor fit] | –
29 | S=c1nc(-c2ccccc2Br)[nH][nH]1 | inconclusive [inhibitor, full curve, poor fit] | –
30 | CC1(C)CC2(CC(c3ccccc3F)c3ccc(O)c(O)c3O2)NC(=S)N1 (stereo not drawn) | inconclusive [inhibitor, partial curve] | –
31 | Cc1ccc(C(=O)[C@@H]2[C@H]3C4COC(O4)C(=O)[C@@H]3[C@H]3C=Cc4ccccc4N32)cc1 (stereo partly drawn) | inconclusive [inhibitor, single point] | –
32 | O=C(Nc1ccc(C(F)(F)F)cc1)N1CCN(c2ccnc3cc(Cl)ccc23)CC1 | inconclusive [inhibitor, partial curve] | –
33 | CCC(C)NC(=O)c1sc2nc(C)c(C(=O)Nc3ccc(C)cc3C)c(-c3ccccc3Cl)c2c1N (stereo not drawn) | – | inactive: -1.22%
34 | O=C1C(=C(O)c2ccccc2)C(=O)c2ccccc21 | inconclusive [inhibitor, partial curve] | –
35 | Cc1ccc(-n2c(=O)c3c4c(sc3n(CC(=O)Nc3ccccc3C)c2=O)CCCCC4)cc1C | – | inactive: -1.72%
36 | O=C1C2=C(Nc3ccccc3SC2c2ccco2)c2ccccc21 (stereo not drawn) | inconclusive [inhibitor, single point] | –
37 | CCOC(=O)CNC(=O)O[C@H]1C(=O)c2cc(OC)ccc2O[C@@H]1c1ccc(OC)c(Br)c1 | inconclusive [inhibitor, partial curve] | –
38 | CC(C)(C)C1CCC2(CC1)C(C#N)=C(SCC(=O)Nc1ccccc1)NC(=O)C2C#N (stereo not drawn) | active: 22.4 µM | –
39 | COc1ccc(-c2csc(NC(=O)COC(=O)c3ccc(Br)o3)n2)cc1 | inconclusive [inhibitor, single point] | –
40 | COc1cc(C(=O)Nc2ccc3c(c2)C(=O)c2ccccc2C3=O)cc(OC)c1OC | inconclusive [activator, partial curve, poor fit] | –
41 | Cc1cc(C)c(C(=O)COC(=O)c2cccc(S(=O)(=O)NCc3ccccc3)c2)cc1C | inconclusive [inhibitor, single point] | –
42 | O=C(CSc1nc(-c2ccc(F)cc2)cc(C(F)(F)F)n1)NCc1ccco1 | inconclusive [inhibitor, single point] | –

Row | SMILES | Potency | activity, negative = inhibition
43 | O=S(=O)(c1ccc2c(c1)OCCO2)N1CCC(n2cnc3cc(F)ccc32)CC1 | inconclusive [inhibitor, partial curve, poor fit] | –
44 | Cc1cc(C)nc(N2CCCC(CCC(=O)NCc3ccc(F)c(F)c3)C2)n1 (stereo not drawn) | inconclusive [inhibitor, partial curve] | –
45 | O=C(CNC(=S)NC(=O)c1ccc(F)cc1)c1ccccc1 | inconclusive [inhibitor, single point] | –
46 | COc1cc(S(=O)(=O)NCCN2CCOCC2)ccc1-n1cnnn1 | – | inactive: 6.19%
47 | O=c1cc(O)c2sc(Nc3ccc(F)c(Cl)c3)nc2[nH]1 | inconclusive [inhibitor, single point] | –
48 | CCOc1ccc2c(c1)n([O-])c1c([n+]2=O)CCCC1 | inconclusive [inhibitor, partial curve] | –
49 | C/C(=N/Nc1ccc(C)cc1)C1(C)N(O)C(C)(C)C(c2ccco2)=[N+]1[O-] (stereo not drawn) | – | inactive: -8.75%
50 | Cc1ccc2c(=O)c(C(=O)c3cccc(Cl)c3)cn(CC(=O)Nc3ccccc3C(F)(F)F)c2n1 | inconclusive [inhibitor, partial curve] | –
51 | O=C(Nc1cccc(Cl)c1)c1ccc(F)c(S(=O)(=O)N2CCN(c3ccccn3)CC2)c1 | inconclusive [inhibitor, partial curve] | –
52 | COc1ccc(NC(=O)CCSc2ccc(F)cc2)cc1 | – | inactive: 5.44%
53 | c1ccc(Cc2nnc3sc(-c4ccccn4)nn23)cc1 | inconclusive [inhibitor, partial curve, poor fit] | –
54 | Oc1ccc(/C=N/Nc2nc(-c3ccccc3F)nc3ccccc23)c(O)c1 | inconclusive [activator, partial curve] | –
55 | CC(C)c1ccccc1NC(=S)NC(C)c1ccccc1 (stereo not drawn) | – | inactive: 3.44%
56 | COc1ccc(CNc2ncnc3c2cnn3-c2ccc(C)c(C)c2)cc1 | inconclusive [inhibitor, full curve] | –
57 | COc1cccc(N(C(=O)Cn2nnc(-c3cccs3)n2)C(C(=O)NC(C)C)c2ccc(C)o2)c1 (stereo not drawn) | inconclusive [inhibitor, single point] | –
58 | Cc1ccc(-c2cc(C(F)F)nc(S(C)(=O)=O)n2)cc1 | – | inactive: 10.8%
59 | O=C1/C(=C/c2ccc(N3CCOCC3)o2)SC(=Nc2ccccc2)N1CCc1c[nH]c2ccccc12 | inconclusive [inhibitor, single point] | –
60 | COc1cccc(C(=O)NC2CC(=O)N(c3ccc4c(c3)OCCO4)C2)c1OC (stereo not drawn) | inconclusive [inhibitor, single point] | –
61 | CNC(=O)[C@H]1O[C@H](n2cnc3c(NCc4cccc(I)c4)ncnc32)[C@@H](O)[C@@H]1O | inconclusive [inhibitor, single point] | –
62 | O=C(NCCCN1CCN(c2ccccc2F)CC1)c1cc2c(s1)-c1ccccc1OC2 | inconclusive [inhibitor, single point] | –
63 | CC(C)n1c(-c2cccnc2)nc2cnccc21 | – | inactive: -1.19%
